# “And” between values parts separate entries of the source, which are not always exact repeats. Identical values can stand only once. About 64,000 (15%) of roughly 420,000 compounds were called active. This list was built around the results that the source calls inconclusive (neither active nor inactive); the mix of calls is not that of the screen. The call rests on the fitted dose curve; in most records, active means well fitted inhibition curve with a large enough effect; inconclusive means small, poorly fitted or top-dose-only effect; inactive means flat fitted curve, though single readings scatter. Potencies of inconclusive entries are left out as doubtful fits. More than one record can exist for a structure, and the calls need not agree.
# Experiment: qHTS for Inhibitors of human tyrosyl-DNA phosphodiesterase 1 (TDP1): qHTS in cells in absence of CPT; further: nearly all actives have a fitted effect of over 55% in size
# Conditions: DT40 Tdp1-/- hTDP1 cells, no CPT, ATP luminescence, 48 h; activity change, negative = growth inhibition: at 46.2 µM (top of the series)
# Summary of the method: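 DT40 Tdp1-/-;hTDP1 cells, no CPT (DMSO vehicle only), 400 cells/well; compounds pin-transferred; ≥48 hr, 37 °C; CellTiter-Glo 30 min RT dark, luminescence read.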
# On the % scale 0 is the no-effect control and ±100 the full control effect; potency means the concentration at half of the fitted maximal effect; tags describe the fitted curve by direction and shape.
Structure (SMILES),"activity change, negative = growth inhibition",Potency
O=C(NCc1cccs1)C1CCN(S(=O)(=O)c2cccc([N+](=O)[O-])c2)CC1,inactive: -11.3%,–
CCOC(=O)Nc1ccc(NCc2ccc(F)cc2)nc1N,–,active: 44.7 µM and active: 11.2 µM and active: 16.4 µM
CC(C)[C@H](N)C(=O)N[C@H]1CCC2C3CC=C4C[C@@H](O)CC[C@]4(C)C3CC[C@@]21C (stereo not given in full),–,"inconclusive [inhibitor, single point]"
O=S(=O)(c1ccc(Cl)cc1)N1CN(CC2CCCO2)c2nc3ccccc3nc21 (stereo not given),inactive: -17.2%,–
Cc1ccc(S(=O)(=O)Nc2cccc(Cl)c2)cc1NC(=O)C1CC1,–,"inconclusive [inhibitor, single point]"
Cc1csc2nc(-c3cccc(NC(=O)C(C)C)c3)cn12,inconclusive: -36.3% [inhibitor],–
Cc1ccc2ncnc(Nc3ccc(C)c(C)c3)c2c1,–,"inconclusive [inhibitor, single point]"
O=C(Nc1ccc(-c2nnc(-c3ccco3)o2)cc1)C(c1ccccc1)c1ccccc1,–,active: 8.2 µM
Cc1cccc(NS(=O)(=O)c2ccc(C(=O)NCC(c3ccco3)N(C)C)cc2)c1C (stereo not given),–,"inconclusive [inhibitor, single point]"
O=C(NCc1ccccc1)C(c1cccc2ccccc12)n1c(=O)c(-c2ccccc2)nc2ccccc21 (stereo not given),–,"inconclusive [inhibitor, single point]"
CCc1ccc(NC(=O)N[C@H](C(=O)O)C(C)CC)cc1 (stereo not given in full),–,"inconclusive [inhibitor, single point]"
CCOc1cc2[nH]c(=O)n(Cc3ccc(C(=O)N4CCN(c5cccc(Cl)c5)CC4)cc3)c(=O)c2cc1OCC,–,active: 2.59 µM
COc1cc(C2NC(=O)c3c(sc4c3CCN(C)C4)N2)cc(OC)c1OC (stereo not given),–,"inconclusive [inhibitor, single point]"
Cc1cccc(OCc2nnc(SCn3nnc4ccccc4c3=O)o2)c1,inactive: -13%,–
CC(C)CNC(=O)c1cccc(NC(=O)CSc2ccc(Cl)cc2)c1,–,"inconclusive [inhibitor, single point]"
CC(=O)NC12CC3CC(C1)CC(C(=O)N1CCN(S(=O)(=O)c4cccs4)CC1)(C3)C2,–,"inconclusive [inhibitor, single point]"
O=C(CSc1nc2ccccc2c(=O)n1-c1ccc(F)cc1F)NC1CC1,inconclusive: -32.6% [inhibitor],–
Cc1cccc(-c2nnc(C3CCN(S(=O)(=O)c4cccc(Cl)c4)CC3)o2)c1,–,active: 2.91 µM

Structure (SMILES),"activity change, negative = growth inhibition",Potency
COC(=O)CCCC[C@@H]1SC[C@@H](NC(=O)OC)[C@@H]1NC(=O)OC,inactive: -2.92%,–
COCC(C)NC(=O)c1cc(OC)cc(OC)c1 (stereo not given),inactive: -29.3%,–
CCOC(=O)C(CC(=O)Nc1nc(C(C)=O)c(C)s1)C(C)c1ccccc1 (stereo not given),–,"inconclusive [inhibitor, single point]"
CCc1ccc(CNC(=O)C2CCN(c3nn4cc(-c5ccc(F)cc5)nc4s3)CC2)cc1,inactive: -16.1%,–
CS(=O)(=O)N1CCN(c2ccnc3cc(Cl)ccc23)CC1,inconclusive: -30.9% [inhibitor],–
COc1ccc(NC(=O)CSc2n[nH]c(=O)n2C2CC2)cc1OC,inactive: -0.749%,–
COc1ccc(CC(=O)Nc2c(C(=O)N3CCN(c4ccccc4OC)CC3)oc3ccccc23)cc1OC,–,active: 23.1 µM
O=C(NCCCCc1ccccc1)c1cccc(NC(=O)C2CCCC2)c1,–,"inconclusive [inhibitor, single point]"
CCc1nc(SCc2ccc(Br)cc2)n[nH]1,inactive: -0.122%,–
Cc1cc(C(=O)COC(=O)C2=NNC(=O)CC2)c(C)n1-c1ccc(OC(F)F)cc1,–,"inconclusive [inhibitor, partial curve]"
CN(C)CCCNC(=O)c1ccc(-c2nc(-c3ccc(Cl)cc3)cs2)cc1,–,active: 20.6 µM
NC(=O)CSc1nc2ccccc2n1Cc1ccccc1,inactive: 24.3%,–
O=S(=O)(c1cnc(Cl)c(Cl)c1)N1CCCc2ccccc21,–,active: 16.4 µM
NS(=O)(=O)c1ccc(CCNC(=O)c2cc([N+](=O)[O-])ccc2N2CCCCC2)cc1,–,"inconclusive [inhibitor, single point]"
CC1CCCCN1C(=O)c1cc(S(=O)(=O)N2CCOCC2)ccc1Cl (stereo not given),inactive: -4.45%,–
Cc1[nH]c(C)c(S(=O)(=O)N2CCN(c3ccccc3)CC2)c1C(=O)N1CCCC1,inactive: 17.8%,–
Cc1ccc(N2CCOCC2)c2c1C(=O)c1ccccc1C2=O,–,active: 16.4 µM
